# Results published in the supplement of paper PMC4996465.
# Structures can show the parent of a compound that is named as a salt. Viability of KB3-1 and Nalm-6 cells after 48 h of drug alone (CellTiter-Glo), 11 doses over about 4.5 log units. % of DMSO wells, lower = more cell loss; AC50 from the fitted curve, lower = more potent. No active / inactive call. Nalm-6 was screened in two runs. AC50 is listed only for well-fitted inhibitory curves. KB3-1 is a HeLa-derived carcinoma line, Nalm-6 a B-cell precursor leukaemia line.
# What was measured:
# KB3-1 [1] = experiment: viability (% of DMSO control); higher = more viable cells
# Procedure: (§1)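 Eleven-dose screen of the NCATS MIPE 3 library on cells without co-treatment; CellTiter-Glo after 48 h, as % of DMSO wells.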
# Nalm-6 [2] = experiment: as above
# Procedure: as §1
# KB3-1 [3] = experiment: log AC50 of viability decrease (48 h) (log10 M); higher = less potent
# Procedure: (§2)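 Eleven-dose screen of the NCATS MIPE 3 library on cells without co-treatment; CellTiter-Glo after 48 h. AC50 from the curve fit; only inhibitory curves of the better fit classes are listed.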
# Nalm-6 [4] = experiment: as above
# Procedure: as §2
SMILES,viability (KB3-1 [1]; 0.00078 µM) [%],viability (KB3-1 [1]; 0.00234 µM) [%],viability (KB3-1 [1]; 0.00702 µM) [%],viability (KB3-1 [1]; 0.0211 µM) [%],viability (KB3-1 [1]; 0.0632 µM) [%],viability (KB3-1 [1]; 0.19 µM) [%],viability (KB3-1 [1]; 0.569 µM) [%],viability (KB3-1 [1]; 1.71 µM) [%],viability (KB3-1 [1]; 5.12 µM) [%],viability (KB3-1 [1]; 15.4 µM) [%],viability (KB3-1 [1]; 46.1 µM) [%],"viability (Nalm-6 [2]; run: 1, 0.00078 µM) [%]","viability (Nalm-6 [2]; run: 1, 0.00234 µM) [%]","viability (Nalm-6 [2]; run: 1, 0.00702 µM) [%]","viability (Nalm-6 [2]; run: 1, 0.0211 µM) [%]","viability (Nalm-6 [2]; run: 1, 0.0632 µM) [%]","viability (Nalm-6 [2]; run: 1, 0.19 µM) [%]","viability (Nalm-6 [2]; run: 1, 0.569 µM) [%]","viability (Nalm-6 [2]; run: 1, 1.71 µM) [%]","viability (Nalm-6 [2]; run: 1, 5.12 µM) [%]","viability (Nalm-6 [2]; run: 1, 15.4 µM) [%]","viability (Nalm-6 [2]; run: 1, 46.1 µM) [%]","viability (Nalm-6 [2]; run: 2, 0.00078 µM) [%]","viability (Nalm-6 [2]; run: 2, 0.00234 µM) [%]","viability (Nalm-6 [2]; run: 2, 0.00702 µM) [%]","viability (Nalm-6 [2]; run: 2, 0.0211 µM) [%]","viability (Nalm-6 [2]; run: 2, 0.0632 µM) [%]","viability (Nalm-6 [2]; run: 2, 0.19 µM) [%]","viability (Nalm-6 [2]; run: 2, 0.569 µM) [%]","viability (Nalm-6 [2]; run: 2, 1.71 µM) [%]","viability (Nalm-6 [2]; run: 2, 5.12 µM) [%]","viability (Nalm-6 [2]; run: 2, 15.4 µM) [%]","viability (Nalm-6 [2]; run: 2, 46.1 µM) [%]",log AC50 of viability decrease (KB3-1 [3]),log AC50 of viability decrease (Nalm-6 [4]; run: 1),log AC50 of viability decrease (Nalm-6 [4]; run: 2)
CC(C)(C)c1cnc(CSc2cnc(NC(=O)C3CCNCC3)s2)o1 [SNS-032],92.7,96.1,102,91.9,50.2,24.9,28.7,28.7,23.8,21.3,12.7,105,102,109,89.1,64.4,9.69,21.7,23.8,19.5,18,2.73,105,106,105,79.6,34.8,7.84,18.3,18.1,21.4,13.2,3.36,-7.28,-7.18,-7.48
Cc1ccc(-c2ncn(-c3ccc(Nc4nccc(-c5cccc(N6CCOCC6)c5)n4)cc3)n2)cn1 [SR-3306],102,103,101,62.8,25,23.6,26.7,29.2,8.82,8.34,5.07,130,122,116,76.4,6.77,3.8,2.54,2.38,3.42,3.6,1.1,103,106,113,80.3,4.79,2.84,2.07,1.52,3.28,1.89,-0.0862,-7.63,-7.63,-7.58
CC[C@H](C1CC[C@H](C)C(O1)[C@@H](C)[C@H](O)[C@H](C)C(=O)[C@H](CC)C2O[C@@]\3(O[C@@]4(CC[C@](C)(O4)C5CC[C@](O)(CC)[C@H](C)O5)[C@H](O)\C=C3)[C@H](C)C[C@@H]2C)C(O)=O (stereo partly specified) [Salinomycin],106,104,104,100,91.6,90.2,90.3,85.3,77.8,56.6,10.5,116,115,115,90.7,47.3,49.7,31.1,26.3,59.9,25.6,4.77,102,97,92.2,80.7,41.7,30,16.4,8.54,38.7,10.4,2.77,-4.68,-7.38,-7.38
CC[C@H](CO)Nc1nc(NCc2ccccc2)c2ncn(C(C)C)c2n1 [Seliciclib],104,98.1,98.2,102,106,102,98.9,97.5,91.2,86.3,21.5,126,109,109,111,117,114,115,111,98.3,73.7,3.39,111,114,112,110,113,113,110,121,109,80.1,0.803,-4.63,-4.68,-4.68
C=C1/C(=C/C=C2\CCCC3(C)[C@@H]([C@H](C)/C=C/C=C/C(O)(CC)CC)CC[C@@H]23)C[C@@H](O)C[C@@H]1O (stereo partly specified) [Seocalcitol],115,117,118,119,125,119,111,113,110,95.1,43.3,106,109,110,110,108,103,115,113,101,74.5,4.14,98.9,101,100,104,106,104,106,103,97.8,85.1,0.597,-4.68,-4.73,-4.63
COCCn1c2c([n+](Cc3cnccn3)c1C)C(=O)c1ccccc1C2=O [Sepantronium bromide],63.2,41.6,27.7,12.4,8.84,6.57,6.59,6.52,4.96,4.77,0.959,30.8,17.4,10.3,10.1,9.98,10.1,9.82,9.15,8.52,7.56,2.14,25.4,14.7,6.61,5.6,5.49,5.45,5.29,5.15,4.78,4.61,1.77,-8.43,-8.78,
c1ccc2c(CCNc3ccc(Nc4ccncc4)cc3)c[nH]c2c1 [Serdemetan],101,99.2,103,101,105,106,107,99.6,92.6,83.8,34.6,108,119,101,115,108,105,94.1,72.4,37.6,15.4,3.54,92.4,99.1,96.3,99.3,102,101,93.2,56.4,12.5,7.07,3.23,-4.68,-5.53,-5.73
O=C(O)c1ccc2c(c1)nc(Nc1cccc(Cl)c1)c1ccncc12 [Silmitasertib],88.6,97,93.2,96.5,93.4,90.7,83.6,68,52.1,40.3,5.04,79.9,93,94.1,89.2,82.9,74.6,63.3,48.9,31,9.21,0.18,97.7,93.7,96.1,102,91.8,89.3,70.1,59.6,43.5,6.25,-0.123,-4.93,-5.53,-5.28
CNC(=O)c1cc(Oc2ccc(NC(=O)Nc3ccc(Cl)c(C(F)(F)F)c3)cc2)ccn1 [Sorafenib],101,99.5,105,106,105,105,109,103,94.9,77.7,15,98.9,103,96.7,104,96.2,101,109,97.5,88.5,43.2,0.504,100,98.8,105,103,107,102,110,106,96,45.6,2.28,-4.68,-4.83,-4.83
COc1cc(N2CCC(N3CCN(C)CC3)CC2)ccc1Nc1ncc(Cl)c(Nc2ccccc2S(=O)(=O)C(C)C)n1 [TAE-684],103,104,102,96.5,91.2,85.6,66.4,44.7,46.4,48,1.66,99.7,98.6,110,97.7,99.3,78.3,64.7,40.7,37,22.6,2.38,5.5,107,108,101,97.7,95,76.8,51.7,43.2,23.6,2.6,-5.28,-5.83,
CC(C)c1ccccc1Cc1cc(C(=O)Nc2ccc(S(=O)(=O)c3ccccc3C(C)(C)C)cc2)c(O)c(O)c1O [TW-37],101,100,101,96.1,97.8,96.5,94.2,98.5,51.6,38.8,35.8,108,112,106,105,114,104,94.2,66.6,39.4,27.4,18.2,107,107,105,105,108,92.5,62.5,33.5,6.26,5.38,4.28,-5.43,-5.63,-6.13
C[N]1C=NC=C1[C@@](N)(C2=CC=C(Cl)C=C2)C3=CC=C4N(C)C(=O)\C=C(\C5=CC=CC(=C5)Cl)C4=C3 [Tipifarnib],91.5,99.2,91.9,86,78.8,69.9,70.3,74.3,63.8,51.9,0.273,93.9,106,86.5,74.8,76.8,64.3,47.4,50,37.9,33.4,-0.561,107,102,95.7,82,84.1,79,69.9,70.6,53.7,51.1,0.762,-4.68,-5.83,-4.93
CC[C@@]1(O)C(=O)OC\C2=C1\C=C3/N(CC4=CC5=C(C=CC(=C5CN(C)C)O)N=C34)C2=O [Topotecan hydrochloride],108,101,106,106,108,102,90.9,76,63.5,46.6,27.6,100,96.1,79.3,12.5,9.13,9.6,8.5,9.06,8.33,7,9.95,101,102,81.1,28,7.13,7.9,6.84,7.04,4.42,3.41,5.35,-5.23,-7.98,-7.93
